# Some of the results follow.
# Tests used:
# Assay in all cases: glycan array binding signal (z-score within array); higher = stronger binding
# Conditions in all cases: glycan notation: IUPAC condensed, linker removed
# [1] = biological target: Fuc(a1-2)Gal6S(b1-3)GlcNAc
# In short: (§1)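 Columns mapping to the same glycan were averaged after glycan names were converted to IUPAC-condensed notation. The data come from 3228 arrays in the Consortium for Functional Glycomics database, limited to those with an available protein sequence. Binding is reported as a within-array Z-score averaged across arrays of one protein sequence and across linkers.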
# [2] = biological target: Fuc(a1-2)Gal6S(b1-3)GlcNAc6S
# In short: as §1
# Fuc(a1-2)Gal6S(b1-4)Glc = biological target: Fuc(a1-2)Gal6S(b1-4)Glc
# In short: as §1
# [3] = biological target: Fuc(a1-2)Gal6S(b1-4)Glc6S
# In short: as §1
# Fuc(a1-2)GlcNAc = biological target: Fuc(a1-2)GlcNAc
# In short: as §1
# Fuc(a1-2)[Gal(a1-3)]Gal = biological target: Fuc(a1-2)[Gal(a1-3)]Gal
# In short: as §1
# [4] = biological target: Fuc(a1-2)[Gal(a1-3)]Gal(b1-3)GalNAc
# In short: as §1
# [5] = biological target: Fuc(a1-2)[Gal(a1-3)]Gal(b1-3)GalNAc(b1-3)Gal(a1-4)Gal(b1-4)Glc
# In short: as §1
# [6] = biological target: Fuc(a1-2)[Gal(a1-3)]Gal(b1-3)GlcNAc
# In short: as §1
# [7] = biological target: Fuc(a1-2)[Gal(a1-3)]Gal(b1-3)GlcNAc(b1-2)Man(a1-3)[Fuc(a1-2)[Gal(a1-3)]Gal(b1-3)GlcNAc(b1-2)Man(a1-6)]Man(b1-4)GlcNAc(b1-4)GlcNAc
# In short: as §1
# [8] = biological target: Fuc(a1-2)[Gal(a1-3)]Gal(b1-3)GlcNAc(b1-2)Man(a1-3)[Fuc(a1-2)[Gal(a1-3)]Gal(b1-3)GlcNAc(b1-2)Man(a1-6)]Man(b1-4)GlcNAc(b1-4)[Fuc(a1-6)]GlcNAc
# In short: as §1
# [9] = biological target: Fuc(a1-2)[Gal(a1-3)]Gal(b1-3)GlcNAc(b1-3)GalNAc
# In short: as §1
# [10] = biological target: Fuc(a1-2)[Gal(a1-3)]Gal(b1-3)GlcNAc(b1-6)GalNAc
# In short: as §1
# [11] = biological target: Fuc(a1-2)[Gal(a1-3)]Gal(b1-4)Glc
# In short: as §1
# [12] = biological target: Fuc(a1-2)[Gal(a1-3)]Gal(b1-4)GlcNAc
# In short: as §1
# [13] = biological target: Fuc(a1-2)[Gal(a1-3)]Gal(b1-4)GlcNAc(b1-2)Man
# In short: as §1
# [14] = biological target: Fuc(a1-2)[Gal(a1-3)]Gal(b1-4)GlcNAc(b1-2)Man(a1-3)[Fuc(a1-2)[Gal(a1-3)]Gal(b1-4)GlcNAc(b1-2)Man(a1-6)]Man(b1-4)GlcNAc(b1-4)GlcNAc
# In short: as §1
# [15] = biological target: Fuc(a1-2)[Gal(a1-3)]Gal(b1-4)GlcNAc(b1-2)Man(a1-3)[Fuc(a1-2)[Gal(a1-3)]Gal(b1-4)GlcNAc(b1-2)Man(a1-6)]Man(b1-4)GlcNAc(b1-4)[Fuc(a1-6)]GlcNAc
# In short: as §1
# [16] = biological target: Fuc(a1-2)[Gal(a1-3)]Gal(b1-4)GlcNAc(b1-3)GalNAc
# In short: as §1
# [17] = biological target: Fuc(a1-2)[Gal(a1-3)]Gal(b1-4)GlcNAc(b1-6)GalNAc
# In short: as §1
# [18] = biological target: Fuc(a1-2)[Gal(a1-3)]Gal(b1-4)[Fuc(a1-3)]Glc
# In short: as §1
# [19] = biological target: Fuc(a1-2)[Gal(a1-3)]Gal(b1-4)[Fuc(a1-3)]GlcNAc
# In short: as §1
# [20] = biological target: Fuc(a1-2)[Gal(a1-3)]Gal(b1-4)[Fuc(a1-3)]GlcNAc(b1-3)GalNAc
# In short: as §1
# [21] = biological target: Fuc(a1-2)[Gal(a1-4)]Gal(b1-4)GlcNAc
# In short: as §1
# [22] = biological target: Fuc(a1-2)[GalNAc(a1-3)]Gal
# In short: as §1
# [23] = biological target: Fuc(a1-2)[GalNAc(a1-3)]Gal(b1-3)GalNAc(a1-3)[Fuc(a1-2)]Gal(b1-4)GlcNAc
# In short: as §1
# [24] = biological target: Fuc(a1-2)[GalNAc(a1-3)]Gal(b1-3)GalNAc(b1-3)Gal(a1-4)Gal(b1-4)Glc
# In short: as §1
# [25] = biological target: Fuc(a1-2)[GalNAc(a1-3)]Gal(b1-3)GlcNAc
# In short: as §1
# [26] = biological target: Fuc(a1-2)[GalNAc(a1-3)]Gal(b1-3)GlcNAc(b1-2)Man(a1-3)[Fuc(a1-2)[GalNAc(a1-3)]Gal(b1-3)GlcNAc(b1-2)Man(a1-6)]Man(b1-4)GlcNAc(b1-4)GlcNAc
# In short: as §1
# [27] = biological target: Fuc(a1-2)[GalNAc(a1-3)]Gal(b1-3)GlcNAc(b1-2)Man(a1-3)[Fuc(a1-2)[GalNAc(a1-3)]Gal(b1-3)GlcNAc(b1-2)Man(a1-6)]Man(b1-4)GlcNAc(b1-4)[Fuc(a1-6)]GlcNAc
# In short: as §1
# [28] = biological target: Fuc(a1-2)[GalNAc(a1-3)]Gal(b1-3)GlcNAc(b1-3)GalNAc
# In short: as §1
# [29] = biological target: Fuc(a1-2)[GalNAc(a1-3)]Gal(b1-3)GlcNAc(b1-6)GalNAc
# In short: as §1
# [30] = biological target: Fuc(a1-2)[GalNAc(a1-3)]Gal(b1-4)Glc
# In short: as §1
# [31] = biological target: Fuc(a1-2)[GalNAc(a1-3)]Gal(b1-4)GlcNAc
# In short: as §1
# [32] = biological target: Fuc(a1-2)[GalNAc(a1-3)]Gal(b1-4)GlcNAc(b1-2)Man
# In short: as §1
# [33] = biological target: Fuc(a1-2)[GalNAc(a1-3)]Gal(b1-4)GlcNAc(b1-2)Man(a1-3)[Fuc(a1-2)[GalNAc(a1-3)]Gal(b1-4)GlcNAc(b1-2)Man(a1-6)]Man(b1-4)GlcNAc(b1-4)GlcNAc
# In short: as §1
# [34] = biological target: Fuc(a1-2)[GalNAc(a1-3)]Gal(b1-4)GlcNAc(b1-2)Man(a1-3)[Fuc(a1-2)[GalNAc(a1-3)]Gal(b1-4)GlcNAc(b1-2)Man(a1-6)]Man(b1-4)GlcNAc(b1-4)[Fuc(a1-6)]GlcNAc
# In short: as §1
# [35] = biological target: Fuc(a1-2)[GalNAc(a1-3)]Gal(b1-4)GlcNAc(b1-3)Gal(b1-4)GlcNAc
# In short: as §1
# [36] = biological target: Fuc(a1-2)[GalNAc(a1-3)]Gal(b1-4)GlcNAc(b1-3)Gal(b1-4)GlcNAc(b1-3)Gal(b1-4)GlcNAc
# In short: as §1
# [37] = biological target: Fuc(a1-2)[GalNAc(a1-3)]Gal(b1-4)GlcNAc(b1-3)GalNAc
# In short: as §1
# [38] = biological target: Fuc(a1-2)[GalNAc(a1-3)]Gal(b1-4)GlcNAc(b1-3)[Fuc(a1-2)[GalNAc(a1-3)]Gal(b1-4)GlcNAc(b1-6)]GalNAc
# In short: as §1
# [39] = biological target: Fuc(a1-2)[GalNAc(a1-3)]Gal(b1-4)GlcNAc(b1-6)GalNAc
# In short: as §1
# [40] = biological target: Fuc(a1-2)[GalNAc(a1-3)]Gal(b1-4)[Fuc(a1-3)]GlcNAc
# In short: as §1
# [41] = biological target: Fuc(a1-2)[GalNAc(a1-3)]Gal(b1-4)[Fuc(a1-3)]GlcNAc(b1-3)GalNAc
# In short: as §1
# [42] = biological target: Fuc(a1-2)[GalNAc(a1-4)]Gal(b1-4)GlcNAc
# In short: as §1
binder,measurement,setting,value
DBA (Dolichos biflorus) (protein) ANIQSFSFKNFNSPSFILQGDATVSSGKLQLTKVKENGFPLRFPSGRAFYSSPIQIYDKFTGAVASWATSFTVKISAPSKASFADGIAFALVPVGSEPRRNGGYLGVFDSDVYNNSAQTVAVEFDTLSNSGWDPSMKHIGIDVNSIKSIATVSWDLANGENAEILITYNAATSLLVVSLVHPSRRTSYILSERVDITNELPEYVGVGFSATTGLSEGYIETHDVLSWSFASRLPDDSTAEPLDLARYLVRNVL,glycan array binding signal (z-score),[1],-0.086
same,glycan array binding signal (z-score),[2],-0.104
same,glycan array binding signal (z-score),Fuc(a1-2)Gal6S(b1-4)Glc,0.346
same,glycan array binding signal (z-score),[3],-0.057
same,glycan array binding signal (z-score),Fuc(a1-2)GlcNAc,-0.191
same,glycan array binding signal (z-score),Fuc(a1-2)[Gal(a1-3)]Gal,-0.014
same,glycan array binding signal (z-score),[4],-0.119
same,glycan array binding signal (z-score),[5],-0.084
same,glycan array binding signal (z-score),[6],-0.106
same,glycan array binding signal (z-score),[7],-0.079
same,glycan array binding signal (z-score),[8],-0.036
same,glycan array binding signal (z-score),[9],-0.076
same,glycan array binding signal (z-score),[10],-0.121
same,glycan array binding signal (z-score),[11],-0.095
same,glycan array binding signal (z-score),[12],-0.127
same,glycan array binding signal (z-score),[13],-0.113
same,glycan array binding signal (z-score),[14],-0.043
same,glycan array binding signal (z-score),[15],-0.079
same,glycan array binding signal (z-score),[16],-0.118
same,glycan array binding signal (z-score),[17],-0.113
same,glycan array binding signal (z-score),[18],-0.123
same,glycan array binding signal (z-score),[19],-0.088
same,glycan array binding signal (z-score),[20],0.02
same,glycan array binding signal (z-score),[21],-0.065
same,glycan array binding signal (z-score),[22],0.024
same,glycan array binding signal (z-score),[23],-0.074
same,glycan array binding signal (z-score),[24],-0.154
same,glycan array binding signal (z-score),[25],-0.129
same,glycan array binding signal (z-score),[26],-0.075
same,glycan array binding signal (z-score),[27],-0.144
same,glycan array binding signal (z-score),[28],-0.071
same,glycan array binding signal (z-score),[29],-0.113
same,glycan array binding signal (z-score),[30],0.577
same,glycan array binding signal (z-score),[31],0.575
same,glycan array binding signal (z-score),[32],-0.09
same,glycan array binding signal (z-score),[33],0.179
same,glycan array binding signal (z-score),[34],-0.058
same,glycan array binding signal (z-score),[35],0.057
same,glycan array binding signal (z-score),[36],0.061
same,glycan array binding signal (z-score),[37],-0.1
same,glycan array binding signal (z-score),[38],-0.099
same,glycan array binding signal (z-score),[39],-0.143
same,glycan array binding signal (z-score),[40],0.046
same,glycan array binding signal (z-score),[41],0.333
same,glycan array binding signal (z-score),[42],-0.082
